This is one part of the list. Further columns of the screen follow, without active or inactive calls. Most of these compounds were active or inconclusive in the main read-out, so they are no random draw.

This assay is described as follows: beta-lactam sensitization of Mtb H37Rv, H37Rv (AID 434955).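 Also: growth measured after seven days incubation then overnight dye step; 0% = bacteria only wells and 100% = bacteria with antibiotic.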 Particulars: M. tuberculosis H37Rv growth with meropenem, percent inhibition; measured here: primary screen without meropenem; at 25 µM.
As usually defined, the inhibition is the relative decrease from the control value, in per cent. Turning to `Cc1ccccc1CS(=O)(=O)Cc1ccc(C(=O)NCCCN2CCCC2=O)o1`, the inhibition was -8.77%.

With `Cn1cc(CN2CCCC(CNS(=O)(=O)c3cccc4cccnc34)C2)cn1` (centres undefined), the inhibition turned out to be 8.97%.

Regarding `COc1ccc(CN2C(=O)c3cccnc3C2=O)cc1S(=O)(=O)N1CCOc2ccc(Cl)cc21`, the inhibition is -4.32%.

Regarding `O=C(Oc1cccc(C(=S)N2CCOCC2)c1)c1cccc(Cl)c1`, the inhibition is 8.7%.

Regarding `CCOc1ccc(N(CC(=O)NCCSCc2ccccc2Cl)S(C)(=O)=O)cc1`, the inhibition is -1.02%.

Turning to `Cc1cccc(NC(=O)c2cccc(N3C(=O)C4C5C=CC(C6CC56)C4C3=O)c2)c1` (centres undefined), the inhibition stood at 3.22%.

With `CCSc1nc(N)c2c3c(sc2n1)CN(C)CC3`, the inhibition was found to be 1.74%.

For `CCC(C)[C@H](NC(=O)NCCCN1CCOCC1)C(=O)OC` (some centres undefined), the inhibition is -0.32%.

For `COc1ccc(Cl)cc1NC(=O)Nc1ccc(Br)cn1`, the inhibition amounted to 5.18%.

For the compound `O=C(Cc1cccc(C(F)(F)F)c1)NCc1cccnc1`, the inhibition is -3.53%.

For `COc1ccc(C(=S)N2CCOCC2)cc1OS(=O)(=O)c1ccc(Br)cc1`, the inhibition was 1.21%.

As for `CCOC(=O)C1C(c2cccc(Cl)c2Cl)NC(=O)NC1(O)C(F)(F)F` (centres undefined), the inhibition was -6.96%.

Take `O=C(OCc1ccccc1F)c1ccc2c(c1)-c1ccccc1C2=O`: the inhibition was determined as 4.48%.

In the case of `Cc1cc(N2CCOCC2)ccc1/C=C1\NC(=O)N(CC(=O)Nc2ccccc2C)C1=O`, the inhibition was determined as 11.1%.

Regarding `O=C(COc1ccc(Cl)cc1)NN=C1CCCCCCC1`, the inhibition was -4.25%.

As for `CC(C)c1ccc(CNc2ncc(Br)cn2)cc1`, the inhibition was 6.24%.

In the case of `CCOC(=O)c1c(N)c(C#N)cn1-c1ccccc1`, the inhibition was -0.17%.

On to `O=C(CCCc1ccccc1)Nc1ccnn1C1CCN(Cc2ccccn2)CC1`, for which the inhibition is 7.88%.

Regarding `CC1Cn2c(COc3ccccc3)nnc2S1` (centres undefined), the inhibition is -5.95%.

With `Cc1csc(NC(=O)c2ccc(C)c(S(=O)(=O)N3CCCCC3)c2)n1`, the inhibition turned out to be 5%.

As to `CC(C)(C)C1CCC(OCC(O)CN2CCN(c3ccccn3)CC2)CC1` (centres undefined), the inhibition amounted to 22.4%.

For the compound `O=C(CSc1nnc(CNC(=O)c2ccc(F)cc2)o1)NCC1CCCO1` (centres undefined), the inhibition came to 1.53%.

Consider `Cc1cccnc1NC(=O)CCc1nnc2ccc(N3CCC4(CC3)OCCO4)nn12`, for which the inhibition is -5.73%.

In the case of `COc1cc(/C=C/C(=O)OCC(=O)Nc2ccc(Cl)cn2)ccc1O`, the inhibition was determined as 51%.

With `CCn1cc(S(=O)(=O)c2ccc(OC)cc2)c(=O)c2cc(OC)ccc21`, the inhibition is -3.8%.

Take `COc1ccc(/C=N/NS(=O)(=O)c2ccc(F)cc2)cc1CN1CCSCC1`: the inhibition is -6.01%.

Consider `CCOC(=O)C1CCCN(Cc2ccccc2OCC)C1` (centres undefined), for which the inhibition turned out to be 1.5%.

As to `Cn1cc(CN2CCC(n3nccc3NC(=O)c3ccccc3Cl)CC2)cn1`, the inhibition is -12.4%.

Turning to `COc1ccc(N(CC(=O)NCCSCc2ccccc2C)S(=O)(=O)c2ccccc2)cc1`, the inhibition is 0.48%.

For the compound `O=C(COc1ccccc1F)N1CCN(S(=O)(=O)/C=C/c2ccccc2)CC1`, the inhibition was 1.2%.

For `COCCCN1CC(=O)N2C(c3ccc(C)cc3)c3[nH]c4ccccc4c3C[C@H]2C1=O` (some centres undefined), the inhibition worked out at 1.96%.

On to `O=C1CC(Nc2ccc(N3CCOCC3)cc2)C(=O)N1C1CCCCC1` (centres undefined), for which the inhibition stood at 26.2%.

For the compound `O=C(O/N=C1/CCSc2ccccc21)c1ccc(F)cc1`, the inhibition worked out at 94.4%.

With `O=C(CN1CCN(S(=O)(=O)c2ccccc2)CC1)NC(=O)NC1CCCCC1`, the inhibition turned out to be 6.21%.

Consider `Cn1c(N)c(C(=O)COC(=O)c2cc(-c3ccco3)nc3ccccc23)c(=O)n(Cc2ccccc2)c1=O`, for which the inhibition is 8.68%.

On to `CCc1ccc(C2CC(c3cccc(OC)c3)n3nc(N)nc3N2)cc1` (centres undefined), for which the inhibition is -0.53%.

Turning to `CCc1c(C)nc(N)n2c(SCC(=O)Nc3ccccc3OC)nnc12`, the inhibition is -2.4%.

In the case of `CCOc1ccccc1-n1c(COc2ccc(C)cc2)nnc1SCC(N)=O`, the inhibition was 3.68%.

As for `O=C(N/N=C/c1cccc(Br)c1)c1ccc(Cn2cc(Br)cn2)o1`, the inhibition came out at 41.5%.

For the compound `C/C=C/COC(=O)c1[nH]c2c(c1C)C(=O)CC(c1ccc(N(C)C)cc1)C2` (centres undefined), the inhibition was 66.8%.

Regarding `Cc1cc(NC(=O)CSc2nnc(-c3ccco3)n2Cc2ccco2)no1`, the inhibition turned out to be 0.27%.

For the compound `CCC1(CC)NC(=O)N(CC(=O)OC(C)C(=O)Nc2cc([N+](=O)[O-])ccc2OC)C1=O` (centres undefined), the inhibition came to 4.86%.

Turning to `CC(C)C1CC(CCNCc2ccc(N(C)C)cc2)(c2ccccc2)CCO1` (centres undefined), the inhibition stood at 28.7%.

As for `Cc1ccc(-n2c(-c3ccncc3)nnc2-c2ccco2)cc1`, the inhibition was found to be 1.17%.

`COc1ccc(C2CC(c3cccc(C)c3)n3ncnc3N2)cc1` (centres undefined): the inhibition stood at 0.85%.

Consider `COC(=O)Cn1c2ccccc2c2nc(C)sc21`, for which the inhibition was determined as 28.9%.

Turning to `CCOC(=O)C1CCN(C(=O)CSc2cc(=O)n(CC)c3ccccc23)CC1`, the inhibition came to 2.24%.

Take `O=C(CN1C(=O)C2C3C=CC(C3)C2C1=O)OCC(=O)c1ccc(Br)cc1` (centres undefined): the inhibition came to 12.7%.

`N#Cc1ccccc1NC(=O)CSc1nnc(-c2ccccc2O)n1-c1ccccc1`: the inhibition came to 9.96%.

Consider `CC(Cc1ccccc1)NC(=O)CN1C(=O)c2ccccc2S1(=O)=O` (centres undefined), for which the inhibition is -1.1%.

On to `Cc1nc(SCc2cccnc2)[nH]c(=O)c1C`, for which the inhibition came out at 0.15%.

`Cc1cc(C)c(C)c(S(=O)(=O)N2C(=S)NC(=O)C2C(C)C)c1C` (centres undefined): the inhibition stood at 18.9%.

Turning to `O=C(Nc1ccc(Cl)c(Cl)c1)O/N=C/c1ccncc1`, the inhibition was determined as 90.7%.

On to `Cc1ccccc1C(=O)N1CCC(n2nccc2NC(=O)C2CC2)CC1`, for which the inhibition worked out at 0.68%.

`CCOC(=O)c1ccsc1NC(=O)CCS(=O)(=O)c1ccccc1`: the inhibition was 9.56%.

Regarding `CSc1ccc(/C=C(/NC(=O)c2ccco2)C(=O)N2CCCCCC2)cc1`, the inhibition was -8.77%.

In the case of `Cc1nnc(SCc2ccc(Cl)cc2)nc1/C=C/N(C)C`, the inhibition stood at 19.5%.

Turning to `O=C(Cn1c(C(F)(F)F)nc2ccccc21)c1ccc(Cl)cc1`, the inhibition is -6.22%.

With `CCOC(=O)CSc1nnc(NC(=O)C2CC(=O)N(c3ccc(F)cc3)C2)s1` (centres undefined), the inhibition is -5.82%.

As to `Cc1ccccc1N1CCN(C2CCCN(C(=O)CCN3CCCCO3)C2)CC1` (centres undefined), the inhibition came out at 4.07%.

In the case of `O=C(CN1C(=O)c2cccnc2Oc2ccc(Cl)cc21)NCCc1ccccc1`, the inhibition is -5.72%.

As for `Cc1cc(C)n(-c2nc(-c3ccc(Cl)c(Cl)c3)cs2)n1`, the inhibition was -12.2%.

`CCCCCN1CC(=O)N2C(C)c3[nH]c4ccccc4c3C[C@H]2C1=O` (some centres undefined): the inhibition was found to be 4.27%.

`CCC(C)[C@@H]1NC(=O)N(CCCN2CCCC2=O)C1=O` (some centres undefined): the inhibition was determined as 3.32%.

On to `O=C(Nc1nnc(SCc2cccnc2)s1)C1CC(=O)N(c2ccc(F)cc2)C1` (centres undefined), for which the inhibition was -3.3%.

As to `CCOC(=O)c1c(NC(=O)c2c(C(=O)O)cccc2[N+](=O)[O-])sc2c1CCCC2`, the inhibition was -6.81%.

Regarding `CC/C(=N\NC(=O)c1ccc(-c2ccccc2)cc1)C12CC3CC(CC(C3)C1)C2`, the inhibition was 3.69%.

Regarding `CCCCCCCC(=O)N/N=C/c1ccc(Br)cc1`, the inhibition worked out at 99.3%.

`CC(C)(C)C(=O)/C=C(N)/C=C/c1ccccc1`: the inhibition amounted to 10.1%.

In the case of `N#CCCCSc1nnc(-c2ccccn2)o1`, the inhibition was -4.69%.

As for `COc1cc(Cc2nccc3cc(OC)c(OC)cc23)c(S(=O)(=O)O)cc1OC`, the inhibition was found to be 3.7%.

For `O=C(OCC#CCSc1nc2ccccc2o1)c1ccco1`, the inhibition turned out to be 99.9%.

For the compound `CCn1nnnc1SCC(=O)c1ccc(C)cc1C`, the inhibition is -2.22%.

In the case of `CCOC(=O)c1cc(C(=O)OCC)cc(-n2cc(O)c(C(=O)OCC)n2)c1`, the inhibition is 8.82%.

In the case of `CCOc1ccc2nc(SCC(=O)Nc3nonc3C)[nH]c2c1`, the inhibition was 1.61%.

In the case of `O=C(c1cnn2c(C(F)(F)F)cc(-c3cccs3)nc12)N1CCN(C(c2ccccc2)c2ccccc2)CC1`, the inhibition is 40%.

For `CCOC(=O)C1=C(C)NC2=C(C(=O)CCC2)C1c1cccnc1` (centres undefined), the inhibition stood at 2.35%.

As to `Cc1nn(C)c(C(=O)NC(=S)Nc2ccccc2Br)c1Cl`, the inhibition came out at 11.4%.

On to `Cc1cc(C(=O)CSc2nc3ccc(Cl)cc3[nH]2)c(C)n1C`, for which the inhibition is -16.5%.

As to `Cc1cc(C)nc(NC(=S)Nc2cccc(F)c2)c1`, the inhibition turned out to be 28.3%.

For `Cc1ccc(C)c(N2CCN(CC3CCCCC3)CC2)c1`, the inhibition is 38.3%.

For the compound `O=C(CN1CCC(O)(c2ccc3c(c2)OCO3)CC1)OC1CCCCC1`, the inhibition turned out to be 27.7%.

For `CCOC(=O)Cn1nc(-c2ccc(C)cc2)c2ccccc2c1=O`, the inhibition was determined as 17.3%.

Regarding `Cn1cccc1Cc1nnc(SCC(=O)Nc2ccc(F)cc2F)n1-c1ccc(F)cc1`, the inhibition is -0.54%.

As to `C/C(=N\NC(N)=S)c1ccc(-n2ccnc2)cc1`, the inhibition is 0.39%.

Consider `O=C1CN(C(=O)c2ccc(Br)o2)C(c2ccc(F)cc2)c2cc(F)ccc2N1` (centres undefined), for which the inhibition was -4.75%.

Regarding `O=C(c1ccccc1)c1ccc2ccccc2n1`, the inhibition stood at 2.69%.

Turning to `CN(C)c1ccc(/C=C/C(=O)c2cccc(Br)c2)cc1`, the inhibition amounted to 34.8%.

As for `Cc1cc(C)cc(NC(=O)C2CCCN2S(=O)(=O)c2ccc3c(c2)C(C)(C)C(=O)N3C)c1` (centres undefined), the inhibition was -15.1%.

`CC1CCc2c(sc(NC(=O)C3=COCCO3)c2C(N)=O)C1` (centres undefined): the inhibition stood at 40.8%.

For `COc1cccc(C(=O)N2CCC(CCC(=O)Nc3cccc(C)c3)CC2)c1`, the inhibition was -1.84%.

As for `CCn1nnc2cc(C(=O)Nc3cc(S(C)(=O)=O)ccc3Cl)ccc21`, the inhibition stood at 5.42%.

For `Cc1ccc(N=Cc2nc(/C=C/c3cccc([N+](=O)[O-])c3)oc2O)cc1`, the inhibition is -3.57%.

For `NC1=Nc2ccccc2Oc2ccccc21`, the inhibition is -6.66%.

As to `Cc1cc(OCc2nnc(SCC(=O)OC3CCCCC3)o2)ccc1Cl`, the inhibition turned out to be 99.6%.

On to `Cc1cccn2c(CNCCc3ccccn3)c(C(=O)N3CCOCC3)nc12`, for which the inhibition is -3.08%.

Turning to `O=C(CSc1ccc([N+](=O)[O-])cn1)Nc1ccc(N2CCOCC2)cc1`, the inhibition came to 33.1%.

As to `COc1ccc2c(C)cc(SCc3c(C)noc3C)nc2c1`, the inhibition was determined as 0.86%.

With `C/C(=N\NC(=O)C1(C)CC1(Br)Br)c1cccc(NC(=O)c2ccc(C)o2)c1` (centres undefined), the inhibition came out at 4.44%.

Take `O=C(N/N=C/c1ccc([N+](=O)[O-])o1)c1ccccc1-n1cccc1`: the inhibition worked out at 24.1%.

As to `COCCNC(=S)N/N=C1\CC(C)CC(C)(C)C1` (centres undefined), the inhibition came to 2.77%.

Regarding `Cc1ccc(OCC(=O)n2cnnc2N)c(C)c1`, the inhibition is -5.62%.

As for `O=S(=O)(c1ccccc1)c1nc(-c2ccccc2)oc1NCCCN1CCOCC1`, the inhibition was determined as 9.33%.

Consider `CN(C)c1ccc(C(=O)c2ccc(N(C)C)cc2)cc1`, for which the inhibition turned out to be 2.76%.

Regarding `CCOC(=O)C1CCCN(C(=O)Cn2nc(C)n3nc(-c4ccccc4)cc3c2=O)C1` (centres undefined), the inhibition was -6.22%.

Take `CC1CCN(CCCNC(=O)COc2cc(=O)n(C)c3ccccc23)CC1`: the inhibition is -4.22%.

Consider `Cc1n[nH]c(=O)c2c1nnn2Cc1ccc(F)cc1`, for which the inhibition is -2.83%.

In the case of `Cc1ccc(-c2noc(CNS(=O)(=O)c3ccccc3)n2)cc1`, the inhibition was 4.84%.

On to `COc1ccc(C(=O)NC(=S)Nc2ccc(S(=O)(=O)Nc3cc(C)on3)cc2)cc1OC`, for which the inhibition was determined as 4.47%.

For the origin of these results see PubChem BioAssay AID434955 (Southern Research Specialized Biocontainment Screening …, 2010).
